Measurements from US9234178B2, “Differentiation of human pluripotent stem cells” (Janssen Biotech, Inc., priority 2008, dated 2016).

Legend:
[1] = system: cells expressing markers characteristic of the pancreatic endocrine lineage; assay: Screening of EMD Kinase Inhibitor Library II for MAFA expression, real-time PCR (Example 11); assay type: cell-based, human; details: for Fold Induction of MAFA expression, fold vs. control: 2.5 μM, days 1, 3, 5 of stage 5
[2] = system: cells expressing markers characteristic of the pancreatic endocrine lineage; assay: Summary of kinase inhibitor screens: MAFA induction and toxicity (Example 12); assay type: cell-based, human; details: for induction of MAFA expression (in words): summary of the screens

Fold Induction of MAFA expression, fold vs. control [1]	Fold Induction of MAFA expression, fold vs. control ([1]; listed as Cdk1/2 Inhibitor III) [fold]	Structure (SMILES)	induction of MAFA expression (in words) [2]	fold induction at 2.5 µM ([1]; Homo sapiens, read-out: Fold Induction of MAFA expression, fold vs. control, 2.5 μM, days 1, 3, 5 of stage 5)	toxicity (in words) [2]
4.5 fold and 5.7 fold	–	NC(=O)c1ccc(-c2nc(-c3ccc4c(c3)OCCO4)c(-c3ccccn3)[nH]2)cc1 [Casein Kinase I Inhibitor, D4476]	–	–	–
4.5 fold and 4.92 fold	–	N#CC(=C(N)Sc1ccc(N)cc1)c1ccccc1C(F)(F)F [MEK1/2 Inhibitor]	induction of MAFA expression	–	–
–	8.2	Nc1nc(Nc2ccc(S(N)(=O)=O)cc2)nn1C(=S)Nc1c(F)cccc1F [PubChem ID#5330812, 5-Amino-3-((4-(aminosulfonyl)phenyl)amino)-N-(2,6-difluorophenyl)-1H-1,2,4-triazole-1-carbothioamide]	induce MAFA	4.5	less toxicity

Values joined by “and” are separate entries in the source; they are usually repeats but may differ in a detail not shown here. Identical values can stand only once.
